From US20220348651A1, “ENTPD2 ANTIBODIES, COMBINATION THERAPIES, AND METHODS OF USING THE ANTIBODIES AND COMBINATION THERAPIES” (Novartis AG, priority 2019, published 2022)

Columns and labels:
human ENTPD2 = target: T1, human ENTPD2 (Homo sapiens, UniProt Q9Y5L3); assay: Biacore (SPR) affinity to human ENTPD2 ECD; format: binding; details: 25° C.
T1 construct: residues 29-462 of human or cyno ENTPD2 were cloned into expression vector; GP67 signal peptide (N); made in house; host or cells: High Five (Trichoplusia ni) insect cells, baculovirus
T1 sequence (Q9Y5L3 29-462): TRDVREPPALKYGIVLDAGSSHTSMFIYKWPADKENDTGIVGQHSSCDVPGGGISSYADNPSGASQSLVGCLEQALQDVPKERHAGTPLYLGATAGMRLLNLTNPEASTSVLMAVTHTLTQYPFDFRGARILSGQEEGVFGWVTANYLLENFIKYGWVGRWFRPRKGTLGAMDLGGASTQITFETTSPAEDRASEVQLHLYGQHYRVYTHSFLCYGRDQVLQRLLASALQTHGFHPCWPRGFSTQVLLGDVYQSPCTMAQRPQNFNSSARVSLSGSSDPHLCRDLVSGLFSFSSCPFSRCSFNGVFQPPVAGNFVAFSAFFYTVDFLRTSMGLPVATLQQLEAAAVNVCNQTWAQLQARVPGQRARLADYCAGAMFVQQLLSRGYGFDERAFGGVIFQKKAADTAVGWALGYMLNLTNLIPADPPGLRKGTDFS
Experimental: Biacore Screening: Affinity was measured by determining the kinetic rate constants using surface plasmon resonance (SPR) on a Biacore T200 or T100 with the T200 sensitivity upgrade instrument (Biacore, GE Healthcare). Antibodies were captured on CM5 sensor chips (Biacore, GE Healthcare) prepared with a mouse anti-human IgG Fc antibody (ThermoFisher catalogue #05-4200) amine coupled to the surface. […] ENTPD2 analytes were allowed to associate for 180 s and dissociate for up to 1800 s depending on the off-rate of the antibody at a flow rate of 30 μL/min. The running buffer was PBS pH 7.2 (prepared from a Corning 10X stock, cat#46-013-CM)+0.05% Tween 20. Regeneration was accomplished with 30 s injections of 3 or 4 M MgCl2 to remove all the captured antibody and remaining complex from the surface, after which fresh antibody was captured. The raw data were analyzed using Biacore T200 Evaluation Software version 1.0 and fit to a 1:1 binding model, with all parameters set to fit globally except for RI, which was set to fit locally.

[1] = system: human ENTPD2 engineered B16LM3 clone B5; assay: Human ENTPD2 engineered B16LM3 clone B5 model, dose response with anti-PD-1 Ab; format: in vivo
Excerpt: This model was derived from the B16LM3 melanoma model, where endogenous mouse ENTPD2 expression was knocked out via a transient electroporation of CAS9 protein with CRISPR guide RNA sequences against mouse ENTPD2, and human ENTPD2 was overexpressed using a retroviral transduction approach.
Once tumors reached approximately 35-50 mm^3, mice were randomized according to tumor volume into treatment groups (n=8 per group). […] All doses were adjusted to individual mouse body weights.

[2] = system: human ENTPD2 engineered B16LM3 clone B5; assay: Plasma and tumor cytokines 24 hr after treatment, B16LM3 clone B5 model; format: in vivo, C57BL/6 mice
Experimental: In order to understand immediate impact of ENTPD2 blockade from immune pathway engagement perspective, plasma and B16LM3 clone B5 tumors (mean tumor volume ˜170 mm^3) were collected from C57BL/6 mice 24 hr after treatment with anti-human ENTPD2 mAb1 or Isotype Control at 10 mg/kg.
Briefly, plasma was isolated via collection of blood into Microvette MV-H-300 Capillary Plasma Lithium Heparin Blood Collection tube (Sai Infusion technologies, Lake Villa, Ill.), that were spun down at 1000-2000×g for 10 min. Plasma samples were stored at −80° C. until use. Tumor samples were surgically excised and immediately frozen in liquid nitrogen. Tumor tissue was then homogenized in T-PER Tissue Protein Extraction Reagent (ThermoFisher, Waltham, Mass.) using the TissueLyser (Qiagen, Germany) instrument. Tumor lysate samples were spun down at 11,000 rpm for 15 min and supernatants were collected for protein concentration analysis using Pierce BCA Protein Assay Kit (ThermoFisher, Waltham, Mass.). 200μg of protein or 25 μl of undiluted plasma was used for cytokine analysis using the V-PLEX Mouse Cytokine 29-Plex Kit (MSD, Rockville, Md.) according to manufacturer's recommendations.

[3] = system: human ENTPD2 engineered B16LM3 clone B5; assay: Human ENTPD2 engineered B16LM3 clone B5 model, combination with A2AR antagonist NIR178; format: in vivo
Experimental: Human ENTPD2-engineered B16LM3 clone B5 was established in female C57BL/6 mice by subcutaneous injection of 0.5×10^6 cells into the right flank of each mouse. Once tumors reached approximately 50 mm^3, mice were randomized according to tumor volume into treatment groups (n=8 per group). Mice received an intravenous (i.v.) treatment of either anti-ENTPD2 mAb1 at a final dose of 10/mg/kg or a non-specific human IgG1 isotype control 10 mg/kg on day 1 of study. NIR178 was administered per os (p.o.) for 4 days on and 3 days off, starting at the beginning of study at either 50 mg/kg or 200 mg/kg. All doses were adjusted to individual mouse body weights. The study was carried out for thirteen days post treatment initiation and tumor volumes were assessed every other day to assess efficacy.

[4] = cynomolgus monkey, in vivo, iv
[5] = Day 7, mAb 10 mg/kg dosed D1, no anti-PD-1 Ab
[6] = 10 mg/kg, 24 hr after treatment, vs Isotype Control

B1: mAb1: humanized anti-human ENTPD2 human IgG1 from mAb17; heavy chain SEQ ID NO: 12, light chain SEQ ID NO: 23 (antibody)
heavy: EVQLVQSGAEVKKPGESLKISCKASGYTFTDYNMDWVRQMPGKGLEWMGDINPKYDISTYNQQFKGQVTISADKSIRTAYLQWSSLKASDTAMYYCARRGFFLYYGINYYYFDVWGQGTLVTVSSASTKGPSVFPLAPSSKSTSGGTAALGCLVKDYFPEPVTVSWNSGALTSGVHTFPAVLQSSGLYSLSSVVTVPSSSLGTQTYICNVNHKPSNTKVDKRV[here human IgG1 Fc without letters]
light: DIQLTQSPSSLSASVGDRVTITCSASSSVSYIHWFQQKPGKAPKLLIYSTSNLASGVPSRFSGSGSGTFFTLTISSLQPEDFATYFCHQWSSYPWTFGQGTKVEIKRTVAAPSVFIFPPSDEQLKSGTASVVCLLNNFYPREAKVQWKVDNALQSGNSQESVTEQDSKDSTYSLSSTLTLSKADYEKHKVYACEVTHQGLSSPVTKSFNRGEC
Question: Which ka (human ENTPD2) does the source give for B1 here?
Answer: 110000 M⁻¹ s⁻¹

Question: What about the kd (human ENTPD2) of the same molecule?
Answer: 0.00019 s⁻¹

Question: And the ΔT/ΔC ([1]; 0.1 mg/kg i.v. day 1, combination with anti-PD-1 Ab fixed dose 10 mg/kg, Day 7)?
Answer: 33.4%

Question: And the ΔT/ΔC ([1]; 1 mg/kg i.v. day 1, combination with anti-PD-1 Ab fixed dose 10 mg/kg, Day 7)?
Answer: 35.7%

Question: And the ΔT/ΔC ([1]; 10 mg/kg i.v. day 1, combination with anti-PD-1 Ab fixed dose 10 mg/kg, Day 7)?
Answer: 18.4%

Question: And the tumor growth ([1]; B16 syngeneic cell line expressing human ENTPD2, combined with an anti-PD-1 antagonistic mAb)?
Answer: delayed tumor growth

Question: What about the “Host Response Δ body weight” value [1, 5] of the same molecule?
Answer: −0.2%

Question: And the “Tumor Response ΔT/ΔC” value [1, 5]?
Answer: 71.7%

Question: What about the anti-tumor efficacy ([1]; as single agents, i.v. day 1) of the same molecule?
Answer: No significant anti-tumor efficacy

Question: What about the “IL-1β at the tumor site” value [2, 6] of the same molecule?
Answer: trend suggesting a parallel reduction

Question: And the “decrease of IL-1β in plasma” value [2, 6]?
Answer: approximately 2 -fold

Question: And the “increase in MCP1 at the tumor site” value [2, 6]?
Answer: approximately 2 -fold

Question: And the “plasma MCP1” value [2, 6]?
Answer: significant decrease

Question: And the “intratumoral M1 macrophages” value ([2]; syngeneic tumors)?
Answer: increase in intratumoral M1 macrophages

Question: And the tumor growth ([3]; B16 syngeneic cell line expressing human ENTPD2, combined with the A2aR antagonist NIR178)?
Answer: delayed tumor growth

Question: And the T/AC value ([3]; mAb1 10 mg/kg i.v. day 1 with NIR178 50 mg/kg p.o., Day 13)?
Answer: 61.6%

Question: And the “AUC(0 − 336 h)/D” value [4]?
Answer: 3′160 μg*h/mL/mg/kg

Question: And the “AUC(0 − inf)/D” value [4]?
Answer: 4′083 μg*h/mL/mg/kg

Question: What about the Cmax/D [4] of the same molecule?
Answer: 32 µg/mL/mg/kg

Question: What about the “AUC(0 − 336 h)/D” value ([4]; 3 mg/kg) of the same molecule?
Answer: 1′894 μg*h/mL/mg/kg

Question: And the “AUC(0 − inf)/D” value ([4]; 3 mg/kg)?
Answer: 2′042 μg*h/mL/mg/kg

Question: And the Cmax/D ([4]; 3 mg/kg)?
Answer: 33 µg/mL/mg/kg

Question: And the “AUC(0 − 336 h)/D” value ([4]; 30 mg/kg)?
Answer: 3′145 μg*h/mL/mg/kg

Question: What about the “AUC(0 − inf)/D” value ([4]; 30 mg/kg) of the same molecule?
Answer: 3′811 μg*h/mL/mg/kg

Question: What about the Cmax/D ([4]; 30 mg/kg) of the same molecule?
Answer: 42 µg/mL/mg/kg

Where two headings read alike, the source gives them in different places.
